In PubChem BioAssay AID652104 (National Center for Advancing Translational Sciences (NCATS), 2013):
Out of some 410,000 compounds screened, about 7,200 (1.8%) were called active. This list was built around the results that the source calls inconclusive (neither active nor inactive); the mix of calls is not that of the screen. The call rests on the fitted dose curve; in most records, active means well fitted activation curve with a large enough effect; inconclusive means small, poorly fitted or top-dose-only effect, or another doubt; inactive means no such curve, though single readings can be large or run the other way. Potencies of inconclusive entries are left out as doubtful fits.

test: qHTS of TDP-43 Inhibitors; conditions: TDP-43 expressing yeast growth rescue, BacTiter-Glo, 24 h; growth rescue (activation): at 46.1 µM (top of the series) unless noted; further: nearly all actives have a fitted effect of over 50% in size; on growth rescue (activation): % of control where 0% means no effect
Procedure, shortened: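 Cell-based yeast growth screen: TDP-43 expression induced in galactose, inoculum OD600=0.02 after raffinose pregrowth to mid-log. Read-out BacTiter-Glo luminescence at 24 hr, 30 deg C; inhibition of toxicity seen as signal increase.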
Potency means the concentration at half of the fitted maximal effect; tags describe the fitted curve by direction and shape.

SMILES | Potency | growth rescue (activation)
COc1cc2c(cc1OC)CN(C(=O)c1oc3ccccc3c1C)CC2 | inconclusive [activator, single point] | –
CC1=NN(c2ccc(C)c(C)c2)C(=O)/C1=C\C=C\c1ccc([N+](=O)[O-])o1 | – | inactive: -3.75%
CCNc1ccc(C(=O)Nc2ccc3nc(C)sc3c2)cc1[N+](=O)[O-] | – | inactive: 19.8%
CCC1Cc2c(nc(N)c3c(N)nc(N4CCCCC4)c(C#N)c23)O1 (centres undefined) | inconclusive [activator, single point] | –
O=C1CC(c2ccccc2)CC(O)=C1C=NCCc1ccccc1 (centres undefined) | – | inactive: 16.7%
O=C(C[C@H]1C(=O)N(Cc2ccccc2)C[C@@H]1Cc1ccccc1)Nc1ccc(Br)cc1 | inconclusive [activator, full curve] | –
S=C(NC1CCCCC1)N1CCc2ccccc2C1 | inconclusive [activator, single point] | –
Cn1c2c(c(=O)n(C)c1=O)C(c1cccc(O)c1)CC(=O)N2 (centres undefined) | inconclusive [activator, partial curve, poor fit] | –
CCc1nc(Nc2ccccc2OC)c2oc3ccccc3c2n1 | active: 12.6 µM | –
Cc1cc(Br)cc(C)c1NC(=O)c1cnc2ccccn2c1=O | inconclusive [activator, partial curve] | –
O=C(NCc1ccccc1F)c1ccc2ccccc2n1 | inconclusive [activator, partial curve] | –
O=C(Oc1ccc(N(C(=O)c2ccncc2)S(=O)(=O)c2ccc(F)cc2)cc1)c1ccncc1 | inconclusive [activator, single point] | –
CCCCC(=O)Nc1sc2c(c1C#N)CC(C)(C)OC2 | inconclusive [activator, full curve, poor fit] | –
O=C(OCc1ccccn1)c1ccc(COc2ccc3ccccc3c2)o1 | inconclusive [activator, partial curve] | –
C#CCN1C=CC(=O)[C@@H](OC(=O)Nc2ccc(Br)cc2)[C@H]1c1ccccc1Br | inconclusive [activator, single point] | –
COc1ccccc1CNCc1ccc(C(=O)O)s1 | – | inactive: 16.3%
O=C(c1ccc2c(c1)OCCCO2)c1cccs1 | inconclusive [activator, partial curve, poor fit] | –
CS(=O)(=O)N(CC(=O)N1CCCCC1)c1sc2c(c1C#N)CCCC2 | inconclusive [activator, single point] | –
COc1ccc(C)cc1NC(=O)CCCN1C(=O)C(c2ccccc2)Oc2cccnc21 (centres undefined) | inconclusive [activator, single point] | –
COc1ccc(Cl)cc1NC(=O)N1CCC(C)CC1 | inconclusive [activator, partial curve] | –
O/N=C\c1ccccc1Oc1ccc(F)cc1 | inconclusive [activator, single point] | –
CCOc1ccc(CCNC(=O)C(CC(C)C)N2Cc3ccccc3C2=O)cc1OCC (centres undefined) | – | inactive: 9.38%
N#Cc1c(-c2ccc(Cl)cc2)nc2n(c1=O)CCCS2 | active: 11.2 µM | –

SMILES | Potency | growth rescue (activation)
Cc1ccc2nc(-c3cccc(Br)c3)c(CC3CCCCC3)n2c1 | inconclusive [activator, partial curve, poor fit] | –
C=CCn1c(SCC(C)=O)nc2scc(-c3ccc(C)o3)c2c1=O | inconclusive [activator, partial curve] | –
COc1cccc(NC(=O)c2ccccc2Br)c1 | inconclusive [activator, partial curve, poor fit] | –
CCOc1ccc(CCNC(=O)CSc2nc3ccccc3nc2Cc2ccc(C)cc2)cc1OCC | inconclusive [activator, partial curve] | –
COC(=O)c1c(C)[nH]c(C)c1-c1ccc([N+](=O)[O-])cc1 | inconclusive [activator, partial curve] | –
CN(CC(=O)Nc1ccccc1Br)C(=O)c1sccc1-c1ccccc1 | inconclusive [activator, partial curve] | –
Cc1cc2cc(CNC(=O)c3ccc(C)c([N+](=O)[O-])c3)ccc2[nH]1 | inconclusive [activator, single point] | –
O=C1CCC(=O)N1OCCOc1ccc(Cl)c2ccccc12 | inconclusive [activator, partial curve] | –
Nc1c2c(=O)oc(-c3ccccc3)cc2nn1-c1ccccc1 | active: 14.1 µM | –
CSc1ccccc1OCc1cc(C(=O)N2CCCC(C)C2)no1 (centres undefined) | inconclusive [activator, partial curve] | –
CCOC(=O)Nc1ccc(C(=O)/C=C/c2ccccc2)cc1 | active: 14.1 µM | –
Cc1ccc(NC(=O)C2CCCN(c3ncnc4onc(C)c34)C2)c(Cl)c1 (centres undefined) | – | inactive: 14.7%
Cc1nn(-c2ccccc2)c2c1C1(C(=O)Nc3ccccc31)N1C(=N2)Sc2ccccc21 (centres undefined) | – | inactive: 20.5%
COc1ccc(N2C(=O)CC(N3CCC(C(N)=O)CC3)C2=O)cc1 (centres undefined) | inconclusive [activator, single point] | –
CCCCNC(=O)CC1Nc2cc(C)c(C)cc2NC1=O (centres undefined) | – | inactive: -8.99%
Cc1ccc(CSCCC(=O)N2CCN(c3ccc(F)cc3)CC2)cc1 | inconclusive [activator, single point] | –
O=C(Cn1c(=O)cnc2ccccc21)Nc1cc(Cl)ccc1N1CCOCC1 | active: 12.6 µM | –
Cn1c(SCc2ccc(C#N)cc2)nnc1-c1cccc(Cl)c1 | inconclusive [activator, single point] | –
Cc1ccc2oc(=O)n(CC(=O)c3ccc(F)cc3)c2c1 | inconclusive [activator, single point] | –
COc1ccc(NC(=O)c2nn(C)c(=O)c3ccccc23)cc1S(=O)(=O)Nc1ccccc1Cl | inconclusive [activator, single point] | –
CC(=O)N1CCC(C(=O)N2c3ccccc3N=C(c3ccc4c(c3)OCO4)C2C(=O)NCc2ccccc2)CC1 (centres undefined) | inconclusive [activator, full curve] | –
CSc1ccc(CNC(=O)Cn2c(-c3cccs3)cc3cc(F)ccc32)cc1 | – | inactive: 10.3%
COc1ccc(Br)cc1[C@H]1[C@@H]2C=CCC[C@@]2(C)C(=O)N1Cc1ccccc1 | inconclusive [activator, single point] | –

SMILES | Potency | growth rescue (activation)
CCOc1cc(C(=O)NCC(C)(C)CNC(=O)c2cc(OCC)c(OCC)c(OCC)c2)cc(OCC)c1OCC | inconclusive [activator, partial curve] | –
COc1ccc(-c2csc(C(O)c3ccc(F)cc3)n2)cc1OC (centres undefined) | active: 22.4 µM | –
CC(C)CN=CC1=C(O)c2ccccc2C1=O | inconclusive [activator, single point] | –
CSc1nnc2c(n1)c(C)nn2-c1cccc(C)c1 | active: 12.6 µM | –
CN(C)CCOc1ccc2c(c1)Sc1ccccc1CC2=O | inconclusive [activator, full curve, poor fit] | –
CCCCc1ccc(Nc2cc(C)nc(-n3nc(C)cc3C)n2)cc1 | – | inactive: -68.6%
COC(=O)c1ccc(NC(=O)Cn2ccn3nc(-c4ccc(OC)cc4)cc3c2=O)cc1 | inconclusive [activator, partial curve] | –
COc1ccc(C(C)=O)cc1COC(=O)c1ccc(OCc2c(C)noc2C)cc1 | – | inactive: 11.6%
O=c1oc2ccccc2n1CSc1nc2ccccc2s1 | inconclusive [activator, partial curve] | –
Clc1ccc(CSc2ccc(-c3ccccn3)nn2)cc1 | inconclusive [activator, single point] | –
O=C(Nc1ccccc1)N1CCCN(c2c(Cl)cncc2Cl)CC1 | inconclusive [activator, partial curve] | –
Cc1ccc(NNC(=O)c2c(F)cccc2Cl)cc1Cl | inconclusive [activator, single point] | –
Cc1ccccc1Nc1nc(Cl)nc(NC(C)(C)C)n1 | inconclusive [activator, partial curve] | –
Cc1ccc(Cn2c(C3CCCN3c3nc(C)cs3)nc3cc(C(F)(F)F)ccc32)cc1 (centres undefined) | inconclusive [activator, partial curve] | –
CN(C)c1oc(-c2ccccc2Cl)nc1S(=O)(=O)c1ccccc1 | inconclusive [activator, partial curve, poor fit] | –
Cc1ccc(-c2nc(-c3ccncc3)no2)cc1Cl | inconclusive [activator, partial curve] | –
Cn1c(=O)c2nc(-c3ccccc3)c(-c3ccccc3)nc2n(C)c1=O | active: 31.6 µM | –
N#Cc1cn(Cc2ccccc2)c2ccccc12 | inconclusive [activator, partial curve, poor fit] | –
Cc1ccccc1-c1nnc(SCC(=O)N(C)c2ccccc2)o1 | inconclusive [activator, partial curve] | –
Cn1c(-c2ccco2)nc2cc3ccccc3cc21 | inconclusive [activator, single point] | –
CCCn1c(COc2cccc(C)c2)nc2ccccc21 | inconclusive [activator, partial curve] | –
Cc1ccc(S(=O)(=O)NCc2ccccc2C)cc1 | – | inactive: 8.3%
Cc1c(C(=O)OCc2ccccc2)[nH]c2c1C(=O)CC(c1ccc(N(C)C)cc1)C2 (centres undefined) | inconclusive [activator, partial curve] | –
